Reference: PubChem BioAssay AID1745853 (National Center for Advancing Translational Sciences (NCATS), 2022)
This is one part of the list. Shown are side measurements of this screen, not its main read-out; they come without a call.

Columns and labels:
Assay in all cases: Primary Screen for Target Class Profiling of Small Molecule Inhibitors of Methyltransferases
[1] = target: Glycine N-methyltransferase (Homo sapiens) (UniProt Q14749); conditions: purified enzyme, MTase-Glo SAH luminescence; measured here: GNMT inhibition; at 40 µM; stronger effect = lower value
Method in brief: (§1)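 Each enzyme was reacted with SAM and its substrate, with compounds tested once at 40 uM; SAH formed was read by MTase-Glo luminescence.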

[2] = target: Guanidinoacetate N-methyltransferase (Homo sapiens) (UniProt Q14353); conditions: purified enzyme, MTase-Glo SAH luminescence; measured here: GAMT inhibition; at 40 µM; stronger effect = lower value
Method in brief: as §1

[3] = target: Histamine N-methyltransferase (Homo sapiens) (UniProt P50135); conditions: purified enzyme, MTase-Glo SAH luminescence; measured here: HNMT inhibition; at 40 µM; stronger effect = lower value
Method in brief: as §1

[4] = target: Nicotinamide N-methyltransferase (Homo sapiens) (UniProt P40261); conditions: purified enzyme, MTase-Glo SAH luminescence; measured here: NNMT inhibition; at 40 µM; stronger effect = lower value
Method in brief: as §1

[5] = target: Phenylethanolamine N-methyltransferase (Homo sapiens) (UniProt P11086); conditions: purified enzyme, MTase-Glo SAH luminescence; measured here: PNMT inhibition; at 40 µM; stronger effect = lower value
Method in brief: as §1
% is set by controls: 0 for no effect and ±100 for the full control effect.

Compound | activity change, negative = inhibition [1] [%] | activity change, negative = inhibition [2] [%] | activity change, negative = inhibition [3] [%] | activity change, negative = inhibition [4] [%] | activity change, negative = inhibition [5] [%]
O=C(CCn1ccc2cc(S(=O)(=O)N3CCCCC3)ccc21)N1CCN(c2ccc(F)cc2)CC1 | -3.32 | -1.93 | -4.42 | -10 | -5.95
O=C(CSc1nnc2n(Cc3ccccc3)c(=O)c3ccccc3n12)Nc1ccc(F)cc1 | -10.3 | 0 | 0.494 | -18.3 | -5.54
O=C(C[C@@H]1CCNC[C@@H]1Cc1cc(COc2ccccc2)on1)Nc1ccccc1 | -6.61 | -0.198 | -6.83 | -9.57 | -13.4
COC(=O)c1cc2n(n1)CC(C)(C(=O)NC1CCC(C)CC1)N(Cc1ccc(F)cc1)C2=O (configuration not stated) | 3.45 | 0 | 6.93 | 3.85 | 4.03
CCOc1cccc(C2c3cccn3-c3sc4c(c3CN2C(=O)Nc2ccc(C)cc2)CCCC4)c1 (configuration not stated) | 1.81 | 0 | 1.53 | -0.587 | 6.05
CCOc1ccc(CCN2C(=O)c3cc4ccccc4n3CC2(C)C(=O)NCc2ccccc2OC)cc1 (configuration not stated) | 2.95 | 3.96 | 0.622 | 6.88 | -0.445
CC1CCCCC1NC(=O)C1(C)Cn2c(nc3ccccc32)C(=O)N1Cc1ccccc1 (configuration not stated) | 6.76 | 0 | 6.37 | 7.8 | 4.43
O=C(CSc1nnc2n(Cc3ccc(F)cc3)c(=O)c3ccccc3n12)Nc1cccc(F)c1 | 3.09 | 0 | 10.5 | -4.17 | 5.9
COCCCNC(=O)C1CCCN1Cc1cccc(-c2ccc(C)c(Cl)c2)c1 (configuration not stated) | -3.18 | 4.14 | 0.711 | -4.37 | 5.58
CC(C)Cn1c(=O)c2ccc(C(=O)NC(C)C)cc2n2c(SCc3ccccc3Cl)nnc12 | 3.86 | 0 | 4.46 | 5.79 | 4.93
Cc1ccc(CC(=O)N2CCN(c3cc(C(F)(F)F)ncn3)CC2)cc1 | -3.73 | 1.87 | -0.314 | -1.07 | -3.97
CSc1cccc(N2C(=O)c3cc(C(C)(C)C)nn3CC2(C)C(=O)NCc2ccccc2)c1 (configuration not stated) | -4.13 | 3.4 | -4.03 | -5.98 | -2.9
COC(=O)c1ncn2c1C(=O)N(Cc1ccc(F)cc1)C(C)(C(=O)NC1CCCCCC1)C2 (configuration not stated) | 2.13 | 3.27 | 2.7 | -2.16 | 0.3
O=C([C@@H]1C[C@H](F)CN1C(=O)Cc1ccccc1F)N1CCCCC1 | -2.09 | -5.72 | 0.386 | -9.73 | -6.04
CC(C)Cn1c(=O)c2ccc(C(=O)NC(C)C)cc2n2c(=O)n(Cc3cccc(Cl)c3)nc12 | 6.01 | 0 | 4.21 | 5.29 | 8.22
Cc1ccccc1Cn1nc2n(Cc3ccccc3)c(=O)c3ccc(C(=O)NC(C)C)cc3n2c1=O | 3.54 | 0.852 | 6.53 | 1.73 | 3.21
CCc1nc2c(c(-c3ccc(O)cc3)n1)CCN(Cc1ccc(F)cc1)CC2 | -5.65 | -6.59 | -5.1 | -15.2 | -10.2
O=C(c1ccccc1OCC1CCCN(Cc2nccs2)C1)N1CCCC1 (configuration not stated) | -8.56 | -8.43 | -15.8 | -12.1 | -8.89
Cn1ccc(NC(=O)c2cc(Oc3ccc(C(=O)N4CCC4)c(F)c3)c3c(c2)OC(C)(C)C3)n1 | -3.76 | -3.76 | 1.61 | -21.6 | -5.04
COc1cc(CN2CCN(Cc3ccc(-n4cccn4)cc3C)CC2CCO)cc(OC)c1 (configuration not stated) | -7.82 | -4.76 | -4.47 | -18.9 | -10.5

Compound | activity change, negative = inhibition [1] [%] | activity change, negative = inhibition [2] [%] | activity change, negative = inhibition [3] [%] | activity change, negative = inhibition [4] [%] | activity change, negative = inhibition [5] [%]
CC1(C)CC[C@]2(C(=O)O[C@@H]3O[C@H](CO)[C@@H](O)[C@H](O)[C@H]3O)CC[C@]3(C)C(=CCC4[C@@]5(C)CC[C@H](O[C@@H]6O[C@H](C(=O)O)[C@@H](O[C@@H]7O[C@H](CO)[C@@H](O)[C@H](O)[C@H]7O)[C@H](O)[C@H]6O)C(C)(C)C5CC[C@]43C)C2C1 (some centres not stated) | 2.72 | 12.7 | 4.68 | -3.9 | 10.8
C[C@H](Cc1ccccc1)Nc1ncnc2c1ncn2[C@@H]1O[C@H](CO)[C@@H](O)[C@H]1O | -10 | 1.17 | -4.2 | -5.15 | 4.93
C=C1C(=O)O[C@H]2C3=C(C)CCC[C@]3(C)C(=O)C[C@@H]12 | 1.43 | 3.66 | 9.55 | -6.8 | 2.46
CNC(=O)N1CCC(C2CCN(C(=O)NCc3cccc(OC)c3)C2)CC1 (configuration not stated) | -2.55 | -1.71 | 1.03 | -5.42 | -2.77
COc1ccccc1CN1C(=O)c2ccc(-c3ccccc3)n2CC1(C)C(=O)NC1CCCCCC1 (configuration not stated) | -3.06 | 3.12 | -5.07 | -12.5 | -3.71
CCOC(=O)c1cc2n(n1)CC(C)(C(=O)NC1CCCCC1)N(Cc1ccc(OCC)cc1)C2=O (configuration not stated) | 7.15 | 2.51 | 2.62 | 1.53 | 7.05
O=C(NCC1CCCO1)C1CCN(C2CCN(C(=O)CCC3CCCCC3)CC2)CC1 (configuration not stated) | -1.57 | 0.585 | 2.14 | -3.77 | -1.83
COc1ccc(OC2OC(CO[C@@H]3O[C@@H](C)[C@H](O)[C@@H](O)[C@H]3O)C(O)C(O)C2O)cc1OC (some centres not stated) | -4.66 | -0.493 | -18.9 | -9.63 | -7.66
O=C(CC1CC(c2ccc(F)cc2F)=NO1)N1CCOCC1 (configuration not stated) | -4.62 | -6.42 | -1.73 | -15.1 | -4.97
CC(C)[S+](=O)([O-])N1CC2ON=C(C(=O)O)C2C1 (configuration not stated) | -0.762 | -4.46 | 0.712 | -6.34 | -1.99
CC(=O)Nc1ccc([C@H](C)C(=O)Nc2ncc(C(C)C)s2)cc1 | 2.67 | -2.63 | 6.28 | -31.4 | 0.707
Cc1cccc(NC(=O)N2CCn3cccc3C2C)c1 (configuration not stated) | -0.971 | 0 | 5.54 | -1.17 | 5.3
CCN(CC)S(=O)(=O)c1ccc(-c2nc(C)ccc2OC)cc1 | -5.83 | -4.1 | -3.12 | -12 | -10.4
COCc1cn(C[C@H]2C[C@@H](NC(=O)c3ccc(C#N)cc3)[C@H](O)[C@@H]2O)nn1 | -6.88 | -10.6 | -6.67 | -15.9 | -14.8
COc1nc(C)cnc1NS(=O)(=O)c1cccnc1-c1ccc(-c2nnco2)cc1 | 4.4 | 3.72 | 6.97 | -7.36 | 0.49
Cc1ccc(NS(=O)(=O)c2cc3c(cc2Cl)n(C)c(=O)n3C)cc1 | -1.4 | 3.87 | -6.79 | -13.3 | -5.87
CC1CCC(N2C(=O)c3ccc(-c4ccco4)n3CC2(C)C(=O)NC2CCCCCC2)CC1 (configuration not stated) | -4.72 | 4.7 | -3.16 | -7.51 | -5.15
O=C1CCN(Cc2cccc(F)c2)CCCOCCN1 | -4.47 | -12.2 | -1.88 | -9.79 | -5.07
CN(C)c1nc(-c2ccncc2)nc2c1CCN(C(=O)c1cc(=O)[nH][nH]1)C2 | -12.5 | -6.07 | -5.08 | -8.69 | 0.207
CCN(CC)CCCN(c1ccccc1)C1Cc2ccccc2C1 | -7.12 | 3.14 | -9.07 | -14.3 | 4.82

Compound | activity change, negative = inhibition [1] [%] | activity change, negative = inhibition [2] [%] | activity change, negative = inhibition [3] [%] | activity change, negative = inhibition [4] [%] | activity change, negative = inhibition [5] [%]
CC1(C(=O)NC2CCCCCC2)Cn2c(ccc2-c2ccco2)C(=O)N1CCCN1CCCCC1 (configuration not stated) | 0.274 | 4.89 | -2.07 | -1.26 | -18.7
CCCNC(=O)N1CCC2(CC1)N(c1ccccc1)C(=O)CS2=O (configuration not stated) | -0.187 | -0.066 | 1.37 | -2.09 | -1.68
CCNC(=O)[C@@H]1CCCN1C(=O)[C@H](CCCN=C(N)N)NC(=O)[C@H](CC(C)C)NC(=O)[C@@H](CC(C)C)NC(=O)[C@H](Cc1ccc(O)cc1)NC(=O)[C@H](CO)NC(=O)[C@H](Cc1c[nH]c2ccccc12)NC(=O)[C@H](Cc1cnc[nH]1)NC(=O)[C@@H]1CCC(=O)N1 | 2.09 |  | 1.18 |  | 
O=C(Cn1ccc2cc(S(=O)(=O)N3CCCC3)ccc21)NCCCc1ccccc1 | 4.01 | 3.24 | -1.85 | -3.49 | -2.91
Cc1nc2ncccn2c1C(=O)N[C@H]1CCOC[C@H]1C1CCOCC1 | 0.98 | -0.296 | 1.14 | 0.5 | 3.27
O=C(NCC1CCCN(C(=O)N2CCCC2)C1)c1ccc(-c2ccccc2)cc1 (configuration not stated) | -11.5 | -3.78 | -5.29 | -13.1 | 3.75
C#CCNCc1cc2cc(OCc3ccccc3)ccc2[nH]1 | 2.15 | 0.361 | 9.1 | -16.1 | 1.47
CC1CCC(NC(=O)C2(C)Cn3c(cc4sccc43)C(=O)N2CCCc2ccccc2)CC1 (configuration not stated) | -5.91 | 2.4 | -3.56 | -0.44 | -5.68
Cc1ccc(Cn2c(=O)c3ccccc3n3c(=O)n(Cc4ccccc4C)nc23)cc1 | 5.77 | 0.551 | 5.12 | 1.64 | 2.96
CCC(CC)(NC(=O)C(C)C)C(=O)N[C@@H](CCCN=C(N)N)C(=O)NC1(C(=O)NC(c2ccc(F)cc2)c2ccc(F)cc2)CCCC1 | 4.95 | 19.4 | 3.78 | -2.05 | -1.53
Cc1cc(Nc2ncc(Cl)c(Nc3ccccc3S(=O)(=O)C(C)C)n2)c(OC(C)C)cc1C1CCNCC1 | 0.714 | 3.98 | -2.49 | -35.7 | -19.7
COc1ccc(Cl)cc1S(=O)(=O)NCCn1c(-c2ccc(F)cc2)nc2ccccc21 | -1.35 | 0 | -0.594 | -10.5 | 3.9
COc1ccc(-c2cc(C(=O)Nc3ccc4c(c3)C(=O)N(C)C3=NCCN34)c3ccccc3n2)cc1 | -2.04 | 2.33 | 2.39 | 1.63 | 0.216
CCC(C)NC(=O)c1ccc2c(=O)n(CC(C)C)c3nnc(SCC(N)=O)n3c2c1 (configuration not stated) | 5.89 | 0.96 | 11 | -1.14 | 6.59
O=C(Nc1ccc(F)cc1)c1ccc2ccnn2c1 | -5.91 | -6.77 | -3.24 | -9.81 | -11.3
O=C(O)Cc1cc(I)c(Oc2ccc(O)c(I)c2)c(I)c1 | -29.2 | -5.44 | 4.35 | -46.7 | 2.76
Cc1ccc(C(=O)N2CCC(N3C(=O)c4c(c(C)nn4-c4ccccc4)C3C)CC2)cc1 (configuration not stated) | -7.62 | 1.04 | -4.5 | -17.1 | -2.74
Cc1ccc(C2=NC3(CCN(C(=O)c4ccc(C)c(C)c4)CC3)ON2)cc1 | -4.95 | -2.02 | -4.32 | -4.77 | -2.12
